The BET-seq Pho4 binding data (Le et al. 2018)
The other results are listed elsewhere or left out. Values were computed here from the reads of four pooled replicates and scatter widely.

Target: T1, Pho4 (S. cerevisiae) (UniProt P07270)
T1 sequence: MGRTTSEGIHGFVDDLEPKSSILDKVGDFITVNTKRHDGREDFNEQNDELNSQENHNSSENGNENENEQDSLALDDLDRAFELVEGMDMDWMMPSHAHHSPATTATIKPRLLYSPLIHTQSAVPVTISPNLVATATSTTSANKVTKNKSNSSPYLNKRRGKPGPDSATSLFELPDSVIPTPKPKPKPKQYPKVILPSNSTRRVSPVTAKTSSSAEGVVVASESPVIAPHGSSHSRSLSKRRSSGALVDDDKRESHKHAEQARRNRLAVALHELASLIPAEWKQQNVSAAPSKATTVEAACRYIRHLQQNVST
Experiment: relative binding free energy (BET-seq); higher = weaker binding
Details: reference: library average

Sequence | relative binding free energy
TAGTTCACGTGTGTAT | 0.27 kcal/mol
GCTGTCACGTGTTTAT | 0.19 kcal/mol
GCTGTCACGTGGGGTA | 0 kcal/mol
TTTCACACGTGGAGAA | 0.2 kcal/mol
TATTTCACGTGAGACG | 0.42 kcal/mol
AAGCTCACGTGTGTTG | 0.23 kcal/mol
AGGGACACGTGTTCGA | 0.01 kcal/mol
AGTTTCACGTGGTAAT | 0.29 kcal/mol
GCGTTCACGTGATGGG | 0.4 kcal/mol
TGTCGCACGTGTTAAG | -0.01 kcal/mol
AATTTCACGTGGGAAT | 0.28 kcal/mol
GACGGCACGTGGGGTT | -0.12 kcal/mol
TGGTACACGTGGATAT | 0.08 kcal/mol
GAGTACACGTGTGGAG | 0.34 kcal/mol
GGCGTCACGTGGTTGC | 0.02 kcal/mol
AGAGTCACGTGTGGGA | 0.18 kcal/mol
TGGTGCACGTGTACGC | -0.04 kcal/mol
TTTGCCACGTGTGGGT | 0.15 kcal/mol
TTAGGCACGTGGGTCT | -0.34 kcal/mol
GTGGGCACGTGCGTAA | -0.12 kcal/mol
TGATACACGTGTTATG | 0.06 kcal/mol
ATGGACACGTGTTGGA | 0.18 kcal/mol
TTTCTCACGTGATGAT | 0.2 kcal/mol
AAAATCACGTGTGAGT | 0.35 kcal/mol
CGTGGCACGTGGATTT | -0.12 kcal/mol

Sequence | relative binding free energy
CTAGTCACGTGTTAGG | 0.08 kcal/mol
GGTAGCACGTGAGGCC | 0.31 kcal/mol
ATGCTCACGTGATTTT | 0.27 kcal/mol
TGTCTCACGTGTTTAG | 0.16 kcal/mol
GAGTTCACGTGGGTTA | 0.37 kcal/mol
ATTTTCACGTGATATA | 0.32 kcal/mol
TGTTACACGTGCAGGC | 0.2 kcal/mol
AGCTTCACGTGTGGAT | 0.24 kcal/mol
GGTGACACGTGCGTAA | 0.04 kcal/mol
TTGTTCACGTGGGGCG | 0.18 kcal/mol
TTTGGCACGTGGTAAG | -0.11 kcal/mol
AGGTTCACGTGGGCCG | 0.16 kcal/mol
AAGATCACGTGTATGG | 0.09 kcal/mol
AATGGCACGTGCGGTT | -0.18 kcal/mol
AGCTTCACGTGATGCT | 0.37 kcal/mol
TTTATCACGTGAGTCA | 0.2 kcal/mol
GGCCGCACGTGGTGGA | -0.16 kcal/mol
TGGGGCACGTGTCTCT | -0.1 kcal/mol
CGCTGCACGTGGGTTG | -0.24 kcal/mol
GTTTTCACGTGGGGCA | 0.26 kcal/mol
GAGGACACGTGAGTTG | 0.38 kcal/mol
TGTAGCACGTGCAATG | -0.07 kcal/mol
TGTAACACGTGTCATG | -0.02 kcal/mol
AGTTGCACGTGCTATG | -0.1 kcal/mol
TATGTCACGTGTAGAT | 0.13 kcal/mol

Sequence | relative binding free energy
AGCGTCACGTGATGGG | 0.16 kcal/mol
TTGTACACGTGAATTA | 0.32 kcal/mol
TGTATCACGTGTTACA | 0.16 kcal/mol
GATTTCACGTGGCATG | 0.41 kcal/mol
GGTTACACGTGGTCAA | -0.04 kcal/mol
AATGTCACGTGGACTG | 0.26 kcal/mol
GTTGGCACGTGGTGCT | -0.07 kcal/mol
AGGGTCACGTGCGGAG | -0.12 kcal/mol
TGCTACACGTGGTGAG | 0.04 kcal/mol
GTGGACACGTGCGTGG | -0.08 kcal/mol
ATCCGCACGTGGGTGG | -0.29 kcal/mol
GAGTCCACGTGGGTTT | 0.14 kcal/mol
TAATTCACGTGTTGGT | 0.26 kcal/mol
TACATCACGTGTATGG | 0.2 kcal/mol
GGAGACACGTGTGCGT | -0.1 kcal/mol
TCGAGCACGTGGGTTA | -0.21 kcal/mol
CAGGTCACGTGGGAGT | 0.02 kcal/mol
CTATGCACGTGATGTG | 0.14 kcal/mol
GGGCTCACGTGGGCTA | 0.24 kcal/mol
AAGTACACGTGGCAGG | 0.02 kcal/mol
TGTTGCACGTGCTGCT | -0.03 kcal/mol
TGGAGCACGTGCTGGC | -0.09 kcal/mol
GAGGACACGTGAAGTT | 0.28 kcal/mol
GGTGACACGTGAGGTC | 0.35 kcal/mol
GTTTACACGTGGCTGT | 0.16 kcal/mol

Sequence | relative binding free energy
GGGGACACGTGTAGTC | 0.1 kcal/mol
GTGGGCACGTGTGACT | -0.05 kcal/mol
TAGTTCACGTGTTGTA | 0.21 kcal/mol
ATGGTCACGTGAATCT | 0.42 kcal/mol
GGTCGCACGTGTGAAG | 0.17 kcal/mol
CTTGCCACGTGGGGTG | -0.35 kcal/mol
GTTTTCACGTGCGTTA | 0.33 kcal/mol
GGTCACACGTGCGGAG | 0.05 kcal/mol
GGTCTCACGTGCCGGG | 0.19 kcal/mol
TTAATCACGTGGTTTG | 0.05 kcal/mol
GGTTTCACGTGGAATC | 0.45 kcal/mol
GGGCACACGTGTGGAG | 0.13 kcal/mol
GAATTCACGTGTTAGT | 0.38 kcal/mol
GAGCTCACGTGGGGAT | 0.32 kcal/mol
GTCAACACGTGGGGAG | 0.04 kcal/mol
TAGTTCACGTGTCGGG | 0.28 kcal/mol
TTGTTCACGTGGCAAT | 0.28 kcal/mol
TAGAACACGTGATGTT | 0.23 kcal/mol
TAAGTCACGTGTCAGG | 0.08 kcal/mol
CAGGGCACGTGTGGCT | -0.06 kcal/mol
CGTGTCACGTGTAGGG | 0.1 kcal/mol
TGGATCACGTGTGGAA | 0.21 kcal/mol
GGAGTCACGTGCAGTT | 0.16 kcal/mol
GGCGTCACGTGTGGAG | 0.11 kcal/mol
TTGGTCACGTGCTGCA | 0.04 kcal/mol

Sequence | relative binding free energy
GTAAGCACGTGGTGTC | -0.09 kcal/mol
ATTCGCACGTGGTCGG | -0.13 kcal/mol
TGGGTCACGTGACTGA | 0.15 kcal/mol
GTGCGCACGTGGTTAG | -0.28 kcal/mol
TAAGTCACGTGTCTAG | 0.08 kcal/mol
TGAATCACGTGTCGGT | 0.07 kcal/mol
GCGTGCACGTGTGGCA | 0.15 kcal/mol
TATGTCACGTGAGCGG | 0.26 kcal/mol
GAGTCCACGTGGAAGG | 0.26 kcal/mol
TTGAGCACGTGGTATT | -0.16 kcal/mol
GAATGCACGTGGGTTC | 0.04 kcal/mol
TTGCACACGTGTTTTG | 0.05 kcal/mol
ATATGCACGTGATTAT | 0.12 kcal/mol
TGCGACACGTGAATTT | 0.4 kcal/mol
GTTTTCACGTGCTGGA | 0.22 kcal/mol
TTGTTCACGTGAGCGG | 0.23 kcal/mol
GGTTACACGTGCGTGC | 0.06 kcal/mol
ATTGCCACGTGCGGTT | -0.17 kcal/mol
GGTATCACGTGTTGTG | 0.31 kcal/mol
CATATCACGTGGTTTG | 0.02 kcal/mol
TGGTACACGTGGGAAT | 0.13 kcal/mol
GTACGCACGTGGGTTA | -0.21 kcal/mol
TACTTCACGTGTTTTA | 0.21 kcal/mol
TTATTCACGTGGTTAT | 0.21 kcal/mol
TAAAGCACGTGGTGTC | -0.12 kcal/mol

Sequence | relative binding free energy
AGGGTCACGTGGTTAC | 0.13 kcal/mol
TATAGCACGTGTTTCA | -0.01 kcal/mol
TCATACACGTGGTAGG | -0.06 kcal/mol
TTCAGCACGTGCCGGG | -0.06 kcal/mol
TGGGTCACGTGTAGCC | 0 kcal/mol
GCTTTCACGTGAAGTG | 0.46 kcal/mol
TTTTTCACGTGTTAGG | 0.32 kcal/mol
TTGTTCACGTGTAGGC | 0.27 kcal/mol
AGTTTCACGTGAGAAT | 0.43 kcal/mol
TATATCACGTGGTCTT | 0 kcal/mol
GGTTTCACGTGGGAGA | 0.4 kcal/mol
AGTTACACGTGTATTG | 0.06 kcal/mol
AAGTTCACGTGGTTTA | 0.26 kcal/mol
GTATACACGTGTAGTA | -0.04 kcal/mol
ACGGACACGTGGGTTG | -0.01 kcal/mol
GGGCGCACGTGGAGAT | -0.1 kcal/mol
TTGCTCACGTGAGGGT | 0.24 kcal/mol
AAGGTCACGTGATAAG | 0.36 kcal/mol
CGGTGCACGTGCTATT | 0.03 kcal/mol
GTTACCACGTGGGGGG | -0.22 kcal/mol
AGTAACACGTGTATGG | -0.11 kcal/mol
